Laboratory results taken from PubChem BioAssay AID1468 (National Center for Advancing Translational Sciences (NCATS), 2008).
Hit rate of the full screen: of about 280,000 compounds, about 1,100 (0.39%) were called active. This list was built around the results that the source calls inconclusive (neither active nor inactive); the mix of calls is not that of the screen. The call rests on the fitted dose curve; in most records, active means well fitted inhibition curve with a large enough effect; inconclusive means small, poorly fitted or top-dose-only effect, or effect the other way; inactive means flat fitted curve, though single readings scatter. Potencies of inconclusive entries are left out as doubtful fits.

Biological target: Microtubule-associated protein tau (Homo sapiens) (UniProt P10636)
Sequence of UniProt P10636 (P10636 whole entry, looked up): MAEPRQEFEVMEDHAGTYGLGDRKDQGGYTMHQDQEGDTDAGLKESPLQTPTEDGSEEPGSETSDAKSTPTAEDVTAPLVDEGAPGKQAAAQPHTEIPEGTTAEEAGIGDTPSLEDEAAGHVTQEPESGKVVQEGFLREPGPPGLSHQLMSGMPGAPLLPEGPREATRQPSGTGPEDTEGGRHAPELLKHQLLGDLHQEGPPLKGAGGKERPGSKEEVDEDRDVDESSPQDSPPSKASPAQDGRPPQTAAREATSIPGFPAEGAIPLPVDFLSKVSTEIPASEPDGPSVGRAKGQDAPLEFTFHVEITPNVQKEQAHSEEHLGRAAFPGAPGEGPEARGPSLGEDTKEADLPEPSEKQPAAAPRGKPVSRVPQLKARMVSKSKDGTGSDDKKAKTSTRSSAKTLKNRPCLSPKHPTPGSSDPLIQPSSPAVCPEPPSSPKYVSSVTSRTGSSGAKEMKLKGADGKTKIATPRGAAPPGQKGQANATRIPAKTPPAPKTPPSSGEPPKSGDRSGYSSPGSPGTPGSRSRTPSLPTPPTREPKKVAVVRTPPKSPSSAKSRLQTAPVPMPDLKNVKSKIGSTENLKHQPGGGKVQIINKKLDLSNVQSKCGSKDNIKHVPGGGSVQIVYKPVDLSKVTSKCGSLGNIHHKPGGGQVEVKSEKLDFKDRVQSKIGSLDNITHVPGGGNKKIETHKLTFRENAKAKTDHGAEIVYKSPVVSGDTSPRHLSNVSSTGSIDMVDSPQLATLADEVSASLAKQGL
Test: qHTS for Inhibitors of Tau Fibril Formation, Fluorescence Polarization; further: nearly all actives have a fitted effect of over 55% in size
Settings: K18 P301L tau heparin fibrillization, Alexa594 FP, 6 h; series mostly up to 57.7 µM; activity, negative = inhibition: at the top concentration
Method in brief: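 Human tau K18 […] P301L fragment, 15 uM unlabeled plus 0.24 uM Alexa 594-labeled tau (final), with compound and 20 uM heparin in 100 mM sodium acetate pH 7; 6 hr at 37 C, then Alexa 594 FP read.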
On the % scale 0 is the no-effect control and ±100 the full control effect; potency means the concentration at half of the fitted maximal effect; tags describe the fitted curve by direction and shape.

SMILES | Potency | activity, negative = inhibition
O=C(Nc1cccc(NC(=O)c2ccccc2Cl)c1)c1cccc(Br)c1 | inconclusive [inhibitor, single point] | –
CN1/C(=C\C(=O)c2cccnc2)C(C)(C)c2ccccc21 | – | inactive: 0.0074%
O=C(Nc1ccccc1N1CCOCC1)c1cc(-c2ccncc2)nc2ccccc12 | inconclusive [activator, single point] | –
COc1ccc(NC(=O)C(NC(=O)/C=C\c2ccc3c(c2)OCO3)c2ccccc2)cc1 (stereo not given) | inconclusive [inhibitor, partial curve] | –
O=C(/C=C/c1ccccc1)C1=C(O)C(=O)N(CCO)C1c1ccccc1[N+](=O)[O-] (stereo not given) | inconclusive [inhibitor, partial curve, poor fit] | –
COc1ccc(N=Cc2c(O)c3ccccc3n2C(C)=O)cc1 | inconclusive [inhibitor, single point] | –
COc1ccccc1OCC(=O)Nc1c(C(=O)c2ccc(F)cc2)oc2ccccc12 | inconclusive [inhibitor, partial curve, poor fit] | –
Cc1ccc(NC(=O)C2CCN(S(=O)(=O)c3cc(-c4noc(C)n4)ccc3C)CC2)c(C)c1 | – | inactive: -4.96%
Cc1ccc(NC(=O)CN(C)C(=O)CSc2nnc(C(F)(F)F)n2C)cc1 | – | inactive: -0.105%
COC(=O)c1ccc(CC(=O)c2c(C)cc(O)cc2O)o1 | inconclusive [inhibitor, single point] | –
Cc1cccc2sc(NC(=O)C3c4ccccc4Oc4ccccc43)nc12 | inconclusive [inhibitor, partial curve] | –
Nc1nonc1-n1nnc(C(=O)c2ccccc2)c1-c1ccccc1 | inconclusive [inhibitor, full curve] | –
Cc1ccc2cc(CN(Cc3ccco3)S(=O)(=O)c3c(C)ccc4nsnc34)c(=O)[nH]c2c1 | inconclusive [inhibitor, single point] | –
CC1CCN(C2=C(NS(=O)(=O)c3ccccc3)C(=O)c3ccccc3C2=O)CC1 | inconclusive [inhibitor, partial curve, poor fit] | –
CCC1CCCCN1C(=O)c1sc(-n2nc(C)c(Cc3ccccc3)c2C)nc1C (stereo not given) | – | inactive: -11.9%
CCc1ccc(/C=N\NC(=O)c2ccc(Br)o2)s1 | – | inactive: 3.61%
O=C(O)c1ccc(NC2=C/C(=N/S(=O)(=O)c3ccccc3)c3ccccc3C2=O)cc1 | inconclusive [inhibitor, single point] | –
CC(C)CCN(C(=O)Nc1ccc(Cl)c(Cl)c1)C(C)c1cccs1 (stereo not given) | inconclusive [inhibitor, single point] | –
COc1ccc(C2CC(=O)Oc3cc4c(cc32)OCO4)cc1 (stereo not given) | inconclusive [inhibitor, single point] | –
O=C(COC(=O)c1cccc(C(=O)OCC(=O)c2ccc(Br)cc2)n1)c1ccc(Br)cc1 | – | inactive: 7.22%

SMILES | Potency | activity, negative = inhibition
Cc1cc(=O)c2c(O)cc(O)c(C)c2o1 | inconclusive [inhibitor, partial curve, poor fit] | –
FC(F)C(F)(F)C(F)(F)C(F)(F)c1cc(-c2ccccc2)n[nH]1 | inconclusive [inhibitor, single point] | –
CCCCC(=NCCc1c(C)[nH]c2ccccc12)C1=C(O)CC(c2ccccc2)CC1=O (stereo not given) | – | inactive: -5.93%
Cc1ccc(C(=O)OCC(=O)Nc2nc(-c3ccccc3)cs2)cc1NC(=O)c1ccco1 | inconclusive [inhibitor, single point] | –
COc1cc(NC(=O)c2ccc(C)c([N+](=O)[O-])c2)ccc1NC(=O)c1ccco1 | inconclusive [inhibitor, single point] | –
COc1ccc(NCc2cc3ccc(OC)cc3n(CC(=O)Nc3cc(Cl)ccc3C)c2=O)cc1 | inconclusive [activator, full curve] | –
CC(=O)c1ccc(N2CCN(C(=O)c3cc4c(s3)CCCC4)CC2)cc1 | – | inactive: 1.91%
CNC(=O)c1[nH]cnc1C(=O)N[C@@H](CC(C)C)C(=O)OC(C)(C)C | inconclusive [inhibitor, single point] | –
CCOc1ccc(NS(=O)(=O)c2ccc3[nH]cc(C(=O)NCC4CCCO4)c(=O)c3c2)cc1 (stereo not given) | inconclusive [inhibitor, partial curve] | –
CS(=O)(=O)N1CCc2cc(-c3csc(NCC4CCCO4)n3)ccc21 (stereo not given) | inconclusive [inhibitor, partial curve, poor fit] | –
COc1ccc(-c2ccc(=O)n(Cc3ccc([N+](=O)[O-])cc3)n2)cc1 | inconclusive [activator, single point] | –
CC(Oc1ccccc1F)C(=O)Nc1ccc(-c2nc3ccccc3s2)cc1 (stereo not given) | inconclusive [inhibitor, partial curve] | –
Cc1cc(C)c2sc(N3CCN(C(=O)C4CC4)CC3)nc2c1 | – | inactive: 1.42%
O=C(N/N=C\C=C\c1ccc2c(c1)OCO2)C1COc2cc3ccccc3cc2O1 (stereo not given) | inconclusive [inhibitor, single point] | –
O=C(Nc1cccc(S(=O)(=O)NCc2ccco2)c1)c1cc(-c2ccccc2)nc2ccccc12 | inconclusive [inhibitor, partial curve, poor fit] | –
COc1cccc(/C=C2/SC(=S)N(CC(=O)Nc3nnc(C)s3)C2=O)c1 | inconclusive [inhibitor, full curve] | –
COc1ccc(C(=O)c2sc(Nc3cc(Cl)ccc3C)nc2N)cc1OC | inconclusive [activator, partial curve] | –
c1ccc(-n2ncc3c(N4CCN(CCOc5cccc6ccccc56)CC4)ncnc32)cc1 | inconclusive [inhibitor, single point] | –
Oc1ccc2ccccc2c1/C=N/c1nc2c(s1)CCCC2 | inconclusive [inhibitor, partial curve] | –
Oc1ccc2oc3c(c2c1C=NCc1ccncc1)CCCC3 | inconclusive [inhibitor, partial curve] | –
